Measurements published in PubChem BioAssay AID686978 (National Center for Advancing Translational Sciences (NCATS), 2013).
Out of some 420,000 compounds screened, about 64,000 (15%) were called active. Inconclusive means that the source gave no clear call. Such entries were picked first, then a sample of the others. The call rests on the fitted dose curve; in most records, active means well fitted inhibition curve with a large enough effect; inconclusive means small, poorly fitted or top-dose-only effect; inactive means flat fitted curve, though single readings scatter. No potency is given beside an inconclusive call; the fits are too rough.

Experiment: qHTS for Inhibitors of human tyrosyl-DNA phosphodiesterase 1 (TDP1): qHTS in cells in absence of CPT; further: nearly all actives have a fitted effect of over 55% in size
Settings: DT40 Tdp1-/- hTDP1 cells, no CPT, ATP luminescence, 48 h; activity change, negative = growth inhibition: at 46.2 µM (top of the series)
Summary of the method: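 No-CPT arm: Tdp1-/-;hTDP1 DT40 cells (400/well) plus compounds, incubated ≥48 hr at 37 °C. Readout CellTiter-Glo luminescence.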
On the % scale 0 is the no-effect control and ±100 the full control effect; potency means the concentration at half of the fitted maximal effect; tags describe the fitted curve by direction and shape.

| Compound | Potency | activity change, negative = growth inhibition |
| --- | --- | --- |
| O=C(CCCN1C(=O)/C(=C/c2ccccc2)SC1=S)Nc1ccccc1O | inconclusive [inhibitor, single point] |  |
| CCCCc1nc(SCC(=O)Nc2ccc(S(N)(=O)=O)cc2)n[nH]1 | inactive |  |
| COCCNC(=O)c1cccc2c(-c3ccnn3C)coc12 | inconclusive [inhibitor, partial curve] |  |
| CCOc1ccc(-c2cccc(NS(=O)(=O)c3cc([N+](=O)[O-])ccc3Cl)c2)nn1 |  | inactive: -22.9% |
| Cc1ccc(NC(=O)Cn2c(=O)n(CC(=O)NCCc3ccccc3)c(=O)c3ccccc32)cc1C | active: 3.26 µM |  |
| COc1ccc(-c2noc(CCC(=O)Nc3cccc(C)c3C)n2)cc1OC | inconclusive [inhibitor, single point] |  |
| C=CCOc1cccc(C2/C(=C(/O)c3ccc(Cl)cc3)C(=O)C(=O)N2CCN2CCOCC2)c1 (configuration not stated) |  | inactive: -2.78% |
| O=[N+]([O-])c1cc(F)cc(F)c1Nc1cc(F)cc(F)c1 |  | inactive: -12.7% |
| Cc1ccc(-n2nc(C)c3c2OC(N)=C(C#N)C3c2ccc(C)o2)cc1 (configuration not stated) | inconclusive [inhibitor, single point] |  |
| Cc1cc(NC(=O)NC(=O)c2ccccc2NC(=O)C(C)N)ccc1Oc1ncc(Br)cn1 (configuration not stated) | active: 0.58 µM |  |
| COc1cc(SC)ccc1C(=O)OCC(=O)NCCNC(=O)COC(=O)c1ccc(SC)cc1OC | inconclusive [inhibitor, single point] |  |
| CCc1cccc(NC(=O)Nc2cn(C)c(=O)c3ccccc23)c1 | inconclusive [inhibitor, single point] |  |
| CN1C[C@@H]2[C@@H]3C(=O)N(Cc4ccccc4)C(=O)[C@@H]3[C@](Cc3ccccc3)(C1=O)N2C(=O)c1ccc(C(C)(C)C)cc1 | active: 16.4 µM |  |
| CC(C)C(=O)N1CCN(c2ccccc2NC(=S)NC(=O)c2ccco2)CC1 | inconclusive [inhibitor, single point] |  |
| Cc1cccc(NC(=O)Nc2nnc(-c3ccccc3)o2)c1 | inconclusive [inhibitor, single point] |  |
| C/C(=N\Nc1nc(N2CCOCC2)nc(N2CCOCC2)n1)c1ccc([N+](=O)[O-])cc1 | inconclusive [inhibitor, single point] |  |
| Cc1csc(NC(=O)CCCNC(=O)c2ccc(Cl)cc2)n1 |  | inactive: -21.9% |
| Cc1ccc2nc(-c3ccc(Cl)s3)c(Nc3ccc4c(c3)OCCO4)n2c1 | inconclusive [inhibitor, single point] |  |
| COc1cc(-c2c(OC)cccc2OC)cc2c1OCCN(Cc1cn[nH]c1-c1ccc(Cl)cc1)C2 |  | inactive: -24.5% |
| COc1cccc(-n2c(SCc3ccc(F)cc3)nc3c([nH]c4ccccc43)c2=O)c1 | inconclusive [inhibitor, single point] |  |
| COC(=O)CCCCC1SCC(NC(=O)OC)C1NC(=O)OC (configuration not stated) |  | inactive: -3.74% |
| O=C(OCc1ccccc1)/C(=C/c1cccc([N+](=O)[O-])c1)NC(=O)c1ccco1 |  | inactive: -20.3% |
| Nc1nnn(Cc2ccccc2)n1 | inconclusive [inhibitor, full curve] |  |
| Cc1ccc2c(c1)c1nc3ccccc3nc1n2C | inconclusive [inhibitor, single point] |  |

| Compound | Potency | activity change, negative = growth inhibition |
| --- | --- | --- |
| Cc1cccc(C(=O)Nc2ccc(NC(=O)Cc3ccc(Cl)cc3)cc2)c1 |  | inactive: -2.87% |
| Nc1nn(-c2ccccc2)c(N)c1N=Nc1ccc2c(c1)OCO2 | active: 4.11 µM |  |
| O=C(C1CC1)N1CCC(Oc2cccc(C(=O)N3CCCCC3CCO)c2)CC1 (configuration not stated) |  | inactive: 11.3% |
| O=c1nc(N2CCCCC2)nc(Nc2ccccc2)[nH]1 |  | inactive: -11.5% |
| CCCN(CCC)CC(O)CN(c1ccccc1)S(=O)(=O)c1ccc(C)cc1 (configuration not stated) | inconclusive [inhibitor, single point] |  |
| Nc1nnc(-c2ccc([N+](=O)[O-])o2)s1 | active: 9.2 µM |  |
| CC(=O)Nc1cccc(/C(C)=N/NC(=O)c2ccc(NS(=O)(=O)c3cccs3)cc2)c1 |  | inactive: -40.2% |
| CC(=O)c1cccc(N(CC(=O)Nc2cc(C)cc(C)c2)S(C)(=O)=O)c1 | inconclusive [inhibitor, full curve, poor fit] |  |
| Cc1ccc(NC(=O)COc2ccccc2)cc1S(=O)(=O)N1CCCCCC1 | active: 29.1 µM |  |
| CCOc1ccc(Oc2ccccc2NS(=O)(=O)c2ccc(CCC(=O)O)cc2)cc1 | inconclusive [inhibitor, partial curve] |  |
| CCOC(=O)c1[nH]c(Cc2[nH]c(C(=O)OCC)c(C)c2CCC(=O)OC)c(CCC(=O)OC)c1C | inconclusive [inhibitor, single point] |  |
| CC1CCCCN1c1nnc(NC(=O)c2cc(-c3ccc(Br)cc3)on2)s1 (configuration not stated) | inconclusive [inhibitor, single point] |  |
| O=C(NN1C(=O)C2C3c4ccccc4C(c4ccccc43)[C@@H]2C1=O)c1ccccc1 (some centres not stated) |  | inactive: -23% |
| CCN(CC)CCCNC(=O)c1cn(C)c2ccc(S(=O)(=O)N(C)C)cc2c1=O |  | inactive: -6.44% |
| CCc1ccc2c(CN3CCc4cc(OC)c(OC)cc4C3)cc(=O)oc2c1 | active: 23.1 µM |  |
| COc1cccc(CNC(=O)CN2C(=O)COc3ccc(S(=O)(=O)N4CCOCC4)cc32)c1 | inactive |  |
| Cc1cccc(NC(=O)CN2C(=O)C(c3ccc(F)cc3)=NC23CCCCCC3)c1 | inconclusive [inhibitor, single point] |  |
| CCn1c(=O)cc(OCC(=O)N2CCN(c3cccc(C)c3C)CC2)c2ccccc21 | active: 7.31 µM |  |
| C[C@H](O)Cc1cc2ccccc2c(=O)o1 |  | inactive: 4.36% |
| Cc1c(F)cccc1NS(=O)(=O)c1ccc(OCCNS(C)(=O)=O)cc1 |  | inactive: -51.4% |
| Cc1ccc2c(c1)-c1c(c(C(=O)N3CCN(c4cc(C)ccc4C)CC3)nn1C)CS2 | active: 14.6 µM |  |
| Cc1ccc(CNC(=O)c2ccc(N3CCCC3)c(NC(=O)Nc3ccc(F)c(Cl)c3)c2)cc1 |  | inactive: -8.46% |
| CCN(CCCNC(=O)c1nn(-c2ccc(C)cc2)c(=O)c2c1c1ccccc1n2C)c1cccc(C)c1 | inconclusive [inhibitor, full curve] |  |
